In ChEMBL document CHEMBL1123676, “Synthetic and enzyme inhibition studies of pepstatin analogues containing hydroxyethylene and ketomethylene dipeptide isosteres” (J Med Chem, 1987):

Assays:
[1] = substrate: COC(=O)C(C)NC(=O)[C@H](Cc1ccccc1)NC(=O)[C@H](Cc1c[nH]cn1)NC(=O)OCc1ccccc1; assay: The kinetic constant (Km)of porcine pepsin substrate Z-His-Phe-Ala-oMe was determined
[2] = substrate: COC(=O)CNC(=O)[C@H](Cc1ccccc1)NC(=O)[C@H](Cc1c[nH]cn1)NC(=O)OCc1ccccc1; assay: The kinetic constant (Km)of porcine pepsin substrate Z-His-Phe-Gly-oMe was determined
[3] = substrate: COC(=O)C(CC(C)C)NC(=O)[C@H](Cc1ccccc1)NC(=O)[C@H](Cc1c[nH]cn1)NC(=O)OCc1ccccc1; assay: The kinetic constant (Km)of porcine pepsin substrate Z-His-Phe-Leu-oMe was determined
[4] = substrate: COC(=O)C(Cc1ccccc1)NC(=O)[C@H](Cc1ccccc1)NC(=O)[C@H](Cc1c[nH]cn1)NC(=O)OCc1ccccc1; assay: The kinetic constant (Km)of porcine pepsin substrate Z-His-Phe-Phe-oMe was determined

B1: Pepsin A (Sus scrofa), P00791 (protein)
chain: MKWLLLLSLVVLSECLVKVPLVRKKSLRQNLIKNGKLKDFLKTHKHNPASKYFPEAAALIGDEPLENYLDTEYFGTIGIGTPAQDFTVIFDTGSSNLWVPSVYCSSLACSDHNQFNPDDSSTFEATSQELSITYGTGSMTGILGYDTVQVGGISDTNQIFGLSETEPGSFLYYAPFDGILGLAYPSISASGATPVFDNLWDQGLVSQDLFSVYLSSNDDSGSVVLLGGIDSSYYTGSLNWVPVSVEGYWQITLDSITMDGETIACSGGCQAIVDTGTSLLTGPTSAIANIQSDIGASENSDGEMVISCSSIDSLPDIVFTINGVQYPLSPSAYILQDDDSCTSGFEGMDVPTSSGELWILGDVFIRQYYTVFDRANNKVGLAPVA
Q: B1 was tested. Which Km [1] did it give?
A: Its Km is 1800 µM.

Q: What about the Km [2] of the same protein?
A: Its Km is 1600 µM.

Q: What about the Km [3] of the same protein?
A: The Km was 500 µM.

Q: And the Km [4]?
A: The Km was 330 µM.
